{
  "source": "the supplement of paper PMC8728848",
  "binders": {"B1": {"name": "LecB PA14 (Pseudomonas aeruginosa) (protein)", "chain": "MATQGVFTLPANTQFGVTAFANSAGTQTVNVQVNNETVATFTGQSTNNAIIGSKVLNSGGGGKVQILVSVNGRSSDLVSAQVILANELNFALVGSEDSTDNDYNDAVVVINWPLG"}},
  "test_in_all_cases": "glycan array binding signal (z-score within array); higher = stronger binding",
  "details_in_all_cases": "glycan notation: IUPAC condensed, linker removed",
  "key": {"Fuc(a1-2)Gal": {"target": "Fuc(a1-2)Gal", "outline": "(§1)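 The binding signal is a Z-score computed within each array. Data were drawn from 3228 arrays in the Consortium for Functional Glycomics database, restricted to those with a known protein sequence. Scores were averaged over arrays of the same protein sequence at different concentrations or buffers, and over linkers, and negative values can be taken as non-binding.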"}, "Fuc(a1-2)Gal(b1-3)GalNAc": {"target": "Fuc(a1-2)Gal(b1-3)GalNAc", "outline": "as §1"}, "[1]": {"target": "Fuc(a1-2)Gal(b1-3)GalNAc(a1-3)[Fuc(a1-2)]Gal(b1-4)Glc", "outline": "as §1"}, "[2]": {"target": "Fuc(a1-2)Gal(b1-3)GalNAc(a1-3)[Fuc(a1-2)]Gal(b1-4)GlcNAc", "outline": "as §1"}, "[3]": {"target": "Fuc(a1-2)Gal(b1-3)GalNAc(b1-3)Gal", "outline": "as §1"}, "[4]": {"target": "Fuc(a1-2)Gal(b1-3)GalNAc(b1-3)Gal(a1-4)Gal(b1-4)Glc", "outline": "as §1"}, "[5]": {"target": "Fuc(a1-2)Gal(b1-3)GalNAc(b1-4)[Neu5Ac(a2-3)]Gal(b1-4)Glc", "outline": "as §1"}, "Fuc(a1-2)Gal(b1-3)GlcNAc": {"target": "Fuc(a1-2)Gal(b1-3)GlcNAc", "outline": "as §1"}, "[6]": {"target": "Fuc(a1-2)Gal(b1-3)GlcNAc(b1-2)Man(a1-3)[Fuc(a1-2)Gal(b1-3)GlcNAc(b1-2)Man(a1-6)]Man(b1-4)GlcNAc(b1-4)GlcNAc", "outline": "as §1"}, "[7]": {"target": "Fuc(a1-2)Gal(b1-3)GlcNAc(b1-2)Man(a1-3)[Fuc(a1-2)Gal(b1-3)GlcNAc(b1-2)Man(a1-6)]Man(b1-4)GlcNAc(b1-4)[Fuc(a1-6)]GlcNAc", "outline": "as §1"}, "[8]": {"target": "Fuc(a1-2)Gal(b1-3)GlcNAc(b1-3)Gal(b1-4)Glc", "outline": "as §1"}, "[9]": {"target": "Fuc(a1-2)Gal(b1-3)GlcNAc(b1-3)GalNAc", "outline": "as §1"}, "[10]": {"target": "Fuc(a1-2)Gal(b1-3)GlcNAc(b1-3)[Fuc(a1-2)Gal(b1-3)GlcNAc(b1-6)]GalNAc", "outline": "as §1"}, "[11]": {"target": "Fuc(a1-2)Gal(b1-3)GlcNAc(b1-3)[Gal(b1-4)GlcNAc(b1-6)]Gal(b1-4)Glc", "outline": "as §1"}, "[12]": {"target": "Fuc(a1-2)Gal(b1-3)GlcNAc(b1-3)[Neu5Ac(a2-6)Gal(b1-4)GlcNAc(b1-6)]Gal(b1-4)Glc", "outline": "as §1"}, "[13]": {"target": "Fuc(a1-2)Gal(b1-3)GlcNAc6S", "outline": "as §1"}, "[14]": {"target": "Fuc(a1-2)Gal(b1-3)[Fuc(a1-4)]GlcNAc", "outline": "as §1"}, "[15]": {"target": "Fuc(a1-2)Gal(b1-3)[Fuc(a1-4)]GlcNAc(b1-2)Man(a1-3)[Fuc(a1-2)Gal(b1-3)[Fuc(a1-4)]GlcNAc(b1-2)Man(a1-3)]Man(b1-4)GlcNAc(b1-4)GlcNAc", "outline": "as §1"}, "[16]": {"target": "Fuc(a1-2)Gal(b1-3)[Fuc(a1-4)]GlcNAc(b1-2)Man(a1-3)[Fuc(a1-2)Gal(b1-3)[Fuc(a1-4)]GlcNAc(b1-2)Man(a1-6)]Man(b1-4)GlcNAc(b1-4)[Fuc(a1-6)]GlcNAc(b1-4)[Fuc(a1-6)]GlcNAc", "outline": "as §1"}, "[17]": {"target": "Fuc(a1-2)Gal(b1-3)[Fuc(a1-4)]GlcNAc(b1-3)[Fuc(a1-3)[Gal(b1-4)]GlcNAc(b1-6)]Gal(b1-4)Glc", "outline": "as §1"}, "[18]": {"target": "Fuc(a1-2)Gal(b1-3)[Fuc(a1-4)]GlcNAc(b1-3)[Gal(b1-4)GlcNAc(b1-6)]Gal(b1-4)Glc", "outline": "as §1"}, "Fuc(a1-2)Gal(b1-4)Glc": {"target": "Fuc(a1-2)Gal(b1-4)Glc", "outline": "as §1"}, "Fuc(a1-2)Gal(b1-4)Glc6S": {"target": "Fuc(a1-2)Gal(b1-4)Glc6S", "outline": "as §1"}, "Fuc(a1-2)Gal(b1-4)GlcNAc": {"target": "Fuc(a1-2)Gal(b1-4)GlcNAc", "outline": "as §1"}, "[19]": {"target": "Fuc(a1-2)Gal(b1-4)GlcNAc(b1-2)Man", "outline": "as §1"}, "[20]": {"target": "Fuc(a1-2)Gal(b1-4)GlcNAc(b1-2)Man(a1-3)[Fuc(a1-2)Gal(b1-4)GlcNAc(b1-2)Man(a1-6)]Man(b1-4)GlcNAc(b1-4)GlcNAc", "outline": "as §1"}, "[21]": {"target": "Fuc(a1-2)Gal(b1-4)GlcNAc(b1-2)Man(a1-3)[Fuc(a1-2)Gal(b1-4)GlcNAc(b1-2)Man(a1-6)]Man(b1-4)GlcNAc(b1-4)[Fuc(a1-6)]GlcNAc", "outline": "as §1"}, "[22]": {"target": "Fuc(a1-2)Gal(b1-4)GlcNAc(b1-2)[Fuc(a1-2)Gal(b1-4)GlcNAc(b1-4)]Man(a1-3)[Fuc(a1-2)Gal(b1-4)GlcNAc(b1-2)Man(a1-6)]Man(b1-4)GlcNAc(b1-4)GlcNAc", "outline": "as §1"}, "[23]": {"target": "Fuc(a1-2)Gal(b1-4)GlcNAc(b1-3)Gal(b1-4)GlcNAc", "outline": "as §1"}, "[24]": {"target": "Fuc(a1-2)Gal(b1-4)GlcNAc(b1-3)Gal(b1-4)GlcNAc(b1-2)Man(a1-3)[Fuc(a1-2)Gal(b1-4)GlcNAc(b1-3)Gal(b1-4)GlcNAc(b1-2)Man(a1-6)]Man(b1-4)GlcNAc(b1-4)GlcNAc", "outline": "as §1"}},
  "note": "The other results are listed elsewhere or left out.",
  "data": [
    {"binder": "B1", "values": [
      {"measurement": "glycan array binding signal (z-score)", "setting": "Fuc(a1-2)Gal", "result": 1.44},
      {"measurement": "glycan array binding signal (z-score)", "setting": "Fuc(a1-2)Gal(b1-3)GalNAc", "result": 0.624},
      {"measurement": "glycan array binding signal (z-score)", "setting": "[1]", "result": 1.11},
      {"measurement": "glycan array binding signal (z-score)", "setting": "[2]", "result": 0.586},
      {"measurement": "glycan array binding signal (z-score)", "setting": "[3]", "result": -0.106},
      {"measurement": "glycan array binding signal (z-score)", "setting": "[4]", "result": 0.395},
      {"measurement": "glycan array binding signal (z-score)", "setting": "[5]", "result": -0.125},
      {"measurement": "glycan array binding signal (z-score)", "setting": "Fuc(a1-2)Gal(b1-3)GlcNAc", "result": 0.145},
      {"measurement": "glycan array binding signal (z-score)", "setting": "[6]", "result": 1.32},
      {"measurement": "glycan array binding signal (z-score)", "setting": "[7]", "result": 0.699},
      {"measurement": "glycan array binding signal (z-score)", "setting": "[8]", "result": -0.469},
      {"measurement": "glycan array binding signal (z-score)", "setting": "[9]", "result": 0.422},
      {"measurement": "glycan array binding signal (z-score)", "setting": "[10]", "result": 1.75},
      {"measurement": "glycan array binding signal (z-score)", "setting": "[11]", "result": 0.316},
      {"measurement": "glycan array binding signal (z-score)", "setting": "[12]", "result": 0.308},
      {"measurement": "glycan array binding signal (z-score)", "setting": "[13]", "result": 0.274},
      {"measurement": "glycan array binding signal (z-score)", "setting": "[14]", "result": 2.93},
      {"measurement": "glycan array binding signal (z-score)", "setting": "[15]", "result": 0.249},
      {"measurement": "glycan array binding signal (z-score)", "setting": "[16]", "result": 0.831},
      {"measurement": "glycan array binding signal (z-score)", "setting": "[17]", "result": 0.122},
      {"measurement": "glycan array binding signal (z-score)", "setting": "[18]", "result": 0.282},
      {"measurement": "glycan array binding signal (z-score)", "setting": "Fuc(a1-2)Gal(b1-4)Glc", "result": 0.378},
      {"measurement": "glycan array binding signal (z-score)", "setting": "Fuc(a1-2)Gal(b1-4)Glc6S", "result": 1.98},
      {"measurement": "glycan array binding signal (z-score)", "setting": "Fuc(a1-2)Gal(b1-4)GlcNAc", "result": 1.12},
      {"measurement": "glycan array binding signal (z-score)", "setting": "[19]", "result": -0.349},
      {"measurement": "glycan array binding signal (z-score)", "setting": "[20]", "result": 2.03},
      {"measurement": "glycan array binding signal (z-score)", "setting": "[21]", "result": 2.75},
      {"measurement": "glycan array binding signal (z-score)", "setting": "[22]", "result": 4.68},
      {"measurement": "glycan array binding signal (z-score)", "setting": "[23]", "result": 0.277},
      {"measurement": "glycan array binding signal (z-score)", "setting": "[24]", "result": 7.45}
    ]}
  ]
}
